Measured values reported in the supplement of paper PMC4604168 (melanoma cell lines).
The other results are listed elsewhere or left out. Most values come without repeats; read them as rough.

Columns and labels:
Assay in all cases: cell count relative to DMSO control; melanoma cells; higher = more viable cells
Conditions in all cases: library dose: standard library concentration; 72 h
G361 = test system: G361
IPC-298 = test system: IPC-298
IST-MEL1 = test system: IST-MEL1
LB2518-MEL = test system: LB2518-MEL
LOXIMVI = test system: LOXIMVI
MEL-HO = test system: MEL-HO
MZ2-MEL = test system: MZ2-MEL
MeWo = test system: MeWo
RPMI7951 = test system: RPMI7951
RVH-421 = test system: RVH-421
SkMel28 = test system: SkMel28
SkMel2 = test system: SkMel2
SkMel30 = test system: SkMel30
SkMel5 = test system: SkMel5
UACC257 = test system: UACC257
UACC62 = test system: UACC62
WM115 = test system: WM115
WM1716 = test system: WM1716
WM1745 = test system: WM1745
WM3526 = test system: WM3526
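Also: cells treated in 1,536-well plates, then fixed and DAPI-stained, with nuclei counted from automated high-throughput microscope images.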

Structure (SMILES)	cell count (G361) [%]	cell count (IPC-298) [%]	cell count (IST-MEL1) [%]	cell count (LB2518-MEL) [%]	cell count (LOXIMVI) [%]	cell count (MEL-HO) [%]	cell count (MZ2-MEL) [%]	cell count (MeWo) [%]	cell count (RPMI7951) [%]	cell count (RVH-421) [%]	cell count (SkMel28) [%]	cell count (SkMel2) [%]	cell count (SkMel30) [%]	cell count (SkMel5) [%]	cell count (UACC257) [%]	cell count (UACC62) [%]	cell count (WM115) [%]	cell count (WM1716) [%]	cell count (WM1745) [%]	cell count (WM3526) [%]
CN(C)S(=O)(=O)c1ccc2c(c1)/C(=C/c1cc3c([nH]1)CCCC3)C(=O)N2 + Cc1cc(SCc2sc(-c3ccc(C(F)(F)F)c(F)c3)nc2C)ccc1OCC(=O)O [GW0742] (first compound 2 µM, partner dose 10 µM)	63.3	59.1	83.1	60.8	118	91.8	79.6	78.8	52.8	91.1	45.8	73.3	78.2	69.2	78.7	81.7	63.7	62.8	49.3	66.7
CCCCCCCCCCCCCCCCCCOP(=O)([O-])OC1CC[N+](C)(C)CC1 [Perifosine] + C[C@]12O[C@H](C[C@]1(O)CO)n1c3ccccc3c3c4c(c5c6ccccc6n2c5c31)CNC4=O [Lestaurtinib] (first compound 2 µM, partner dose 0.02 µM)	80.5	70.1	93.9	62	104	81.4	93.4	70	35.1	94.6	64.5	92.7	71.3	64.7	101	84	79	83.2	88.3	78.4
Cc1ccc(NC(=O)c2cccc(N(C)C)c2)cc1NC(=O)c1ccc(O)cc1 + C/C(O)=C(\C#N)C(=O)Nc1cc(Br)ccc1Br [LFM-A13] (first compound 10 µM, partner dose 10 µM)	81.6	100	77.7	85.7	109	94.8	85.9	93.1	72	103	58.2	99.8	86.4	83.4	111	86	101	100	68.1	82
COc1ccc2c(c1)CCC1C2CCC2(C)C(NCCCCCCN3C(=O)C=CC3=O)CCC12 (configuration not stated) + Cc1cc(SCc2sc(-c3ccc(C(F)(F)F)c(F)c3)nc2C)ccc1OCC(=O)O [GW0742] (first compound 2 µM, partner dose 10 µM)	91.1	79.2	90	118	143	98.6	74.7	59.3	22.4	77.7	81.9	93.2	87.1	72	88.5	76.8	91.8	74.1	95.1	101
Cc1cc(N2CCOCC2)cc2[nH]c(-c3c(NC[C@@H](O)c4cccc(Cl)c4)cc[nH]c3=O)nc12 + C/C(O)=C(\C#N)C(=O)Nc1cc(Br)ccc1Br [LFM-A13] (first compound 1 µM, partner dose 10 µM)	79.1	102	104	99.2	76.8	83.9	90.3	81	70.3	116	103	96.9	75.1	75.6	95.9	79.1	86.3	97	59.1	85.2
C[C@]1(c2nc3c(C(N)=O)cccc3[nH]2)CCCN1 [Veliparib] + Cc1cc(SCc2sc(-c3ccc(C(F)(F)F)c(F)c3)nc2C)ccc1OCC(=O)O [GW0742] (first compound 7 µM, partner dose 10 µM)	91.3	121	104	81	97.1	94.5	108	100	103	85.6	77.2	82.9	96.6	81.1	101	73.6	71.8	91	67.5	92.8
C/C(O)=C(\C#N)C(=O)Nc1cc(Br)ccc1Br + Cc1cc([N+](=O)[O-])ccc1NS(=O)(=O)c1cc(Cl)ccc1Cl [FH535] (first compound 10 µM, partner dose 5 µM)	32.8	39.9	57.4	73.7	53.4	44	55.1	64.8	81.1	54.3	54.7	70.6	78.4	42.5	65.1	71	69.4	67.3	71.3	64.8
Nc1cccc2c1CN(C1CCC(=O)NC1=O)C2=O (configuration not stated) [lenalidomide] + C/C(O)=C(\C#N)C(=O)Nc1cc(Br)ccc1Br [LFM-A13] (first compound 5 µM, partner dose 10 µM)	102	111	103	97.5	108	105	96.4	98.9	87.1	94.8	77.4	96.3	87.1	87.3	85.4	64.2	103	90.8	91.7	81.1
Cc1cc(N2CCOCC2)cc2[nH]c(-c3c(NC[C@@H](O)c4cccc(Cl)c4)cc[nH]c3=O)nc12 + Cc1cc(SCc2sc(-c3ccc(C(F)(F)F)c(F)c3)nc2C)ccc1OCC(=O)O [GW0742] (first compound 1 µM, partner dose 10 µM)	86.7	77.4	97.1	96.6	58.5	99.3	102	77.8	87.3	89.6	61.7	90.1	92.5	68.9	118	133	102	102	49.1	73.3
C[C@]1(c2nc3c(C(N)=O)cccc3[nH]2)CCCN1 [Veliparib] + C/C(O)=C(\C#N)C(=O)Nc1cc(Br)ccc1Br [LFM-A13] (first compound 7 µM, partner dose 10 µM)	102	89	95.7	92.8	111	80.7	88.7	121	153	73.5	69.1	87.9	82.6	77.8	93.6	80.8	79.3	100	134	101
Cc1ccc(Nc2nccc(N(C)c3ccc4c(C)n(C)nc4c3)n2)cc1S(N)(=O)=O [Pazopanib] + Cn1cc(C2=C(c3cn(C4CCN(Cc5ccccn5)CC4)c4ccccc34)C(=O)NC2=O)c2ccccc21 [Enzastaurin] (first compound 2 µM, partner dose 4 µM)	70.3	74.6	74.1	75.9	68	73.7	66.1	69.3	27.6	73.9	77.9	90.7	92.5	72.2	86	46.4	124	72	49.8	78.5
Cn1cnc2c(F)c(Nc3ccc(Br)cc3Cl)c(C(=O)NOCCO)cc21 [selumetinib] + C[As](C)SC[C@H](NC(=O)CC[C@H](N)C(=O)O)C(=O)NCC(=O)O [Darinaparsin] (first compound 0.075 µM, partner dose 2 µM)	56.6	49.9	83.5	47.3	96.9	83.9	71.4	58.7	181	72.9	72.1	46.4	60.3	61.9	109	70.1	81	64.4	77.2	69.2
N#Cc1c(O)c2c(-c3ccc(-c4ccccc4O)cc3)csc2[nH]c1=O + Cc1cc(SCc2sc(-c3ccc(C(F)(F)F)c(F)c3)nc2C)ccc1OCC(=O)O [GW0742] (first compound 10 µM, partner dose 10 µM)	97	104	100	82.7	110	94.5	80.3	80.7	80	91.2	79.2	94.4	95.1	92.7	92.3	89	79.3	98	80.8	82.3
Cc1cc(N2CCOCC2)cc2[nH]c(-c3c(NC[C@@H](O)c4cccc(Cl)c4)cc[nH]c3=O)nc12 + O=C(Oc1ccc([N+](=O)[O-])cc1)N1CCC(C(O)(c2ccc3c(c2)OCO3)c2ccc3c(c2)OCO3)CC1 [JZL184] (first compound 1 µM, partner dose 5 µM)	71.6	89.1	90	108	75.1	92	98.5	62.3	70.2	83.8	106	99.8	86.7	65.3	99.9	85.5	106	92.3	46.1	67.7
CCCCCCCCCCCCCCCCCCOP(=O)([O-])OC1CC[N+](C)(C)CC1 [Perifosine] + C/C(O)=C(\C#N)C(=O)Nc1cc(Br)ccc1Br [LFM-A13] (first compound 2 µM, partner dose 10 µM)	113	86.4	105	87.3	81.1	93.9	88	90.7	49.3	103	65	103	93.6	74.1	87.1	84.6	83.5	79.7		96.7
O=C(O)[C@@H]1[O][Sb](=[O])([O][Sb]2(=[O])[O][C@H]([C@H](O)CO)[C@H](O)[C@H](C(=O)O)[O]2)[O][C@H]([C@H](O)CO)[C@@H]1O (some centres not stated) [stibogluconate] + C/C(O)=C(\C#N)C(=O)Nc1cc(Br)ccc1Br [LFM-A13] (first compound 10 µM, partner dose 10 µM)	143	132	102	148	96.4	85.9	96.9	100	94	128	90.3	117	112	112	105	89.2	82.6	125		98.4
Cn1cnc2c(F)c(Nc3ccc(Br)cc3Cl)c(C(=O)NOCCO)cc21 [selumetinib] + Cc1cc(SCc2sc(-c3ccc(C(F)(F)F)c(F)c3)nc2C)ccc1OCC(=O)O [GW0742] (first compound 0.075 µM, partner dose 10 µM)	76	49.8	93.3	48.6	113	83.2	61.7	76.1	105	69.9	61.4	57.2	64.2	64.3	94.5	57.1	75.2	87.3		59.4
